Experimental data from ChEMBL document CHEMBL4888484, “Replenishing the malaria drug discovery pipeline: Screening and hit evaluation of the MMV Hit Generation Library 1 (HGL1) against asexual blood stage Plasmodium falciparum ,using a nano luciferase reporter read-out” (2022).
Hit rate of the full screen: of about 150,000 compounds, about 540 (0.36%) showed an effect of 50% or more. The list shows a part of the results.

Each compound was assayed on Plasmodium falciparum (assay: Primary screen in NF54 nanoGlo assay, in single point, at 2uM, 72h; a lower Z score goes with more inhibition). Settings: timepoint 72 hour.
Format: functional, Erythrocyte

SMILES | % Inhibition [%] | Z score
Cc1cc(=O)[nH]c(CNc2ncnc3c2CCC3)n1 | -18 | 3.38
CCn1nnc2c(N3CCCC3)ncnc21 | -6 | 0.98
O=C1[C@H](Cc2ccccc2)NC2(CCN(S(=O)(=O)c3ccccc3)CC2)N1Cc1ccco1 | -16 | 1.91
C[C@H]1CCc2nc3ccccc3c(C(=O)N3CCN(c4nccs4)CC3)c2C1 | -8 | 0.9
Cc1c(Cl)cccc1S(=O)(=O)N1CCC(Oc2ccccn2)CC1 | 0 | -0.01
c1cn(Cc2ccc3c(c2)OCO3)c(-c2ccc(-c3cc[nH]n3)o2)n1 | -8 | 1.56
O=C1O[C@@H](CNS(=O)(=O)c2cccnc2)CN1c1ccccc1 | -12 | 1.38
Cc1ccc(Cc2noc(-c3cccc(OC(C)C)n3)n2)cn1 | -13 | 1.68
O=C(O)c1csc(S(=O)(=O)N(CC2CCC2)c2ccccc2)c1 | 25 | -2.84
CC1CCCC(c2ncnc3c2cnn3-c2ccccc2)C1 (stereo not given) | -4 | 0.55
O=C(N[C@H]1CCOC[C@@H]1Oc1ccccn1)c1cn[nH]c1 | -5 | 0.83
Cc1ncnc(OCC2CCN(CCN3CCCC3=O)CC2)c1C | -2 | 0.24
O=C(C1CCCC1)N1CCN(Cc2ccc(-n3ccnc3)cc2)CC1 | -19 | 3.73
CCCCNC(=O)N1CCCS(=O)(=O)CC1 | -10 | 1.53
Cn1nc(CCN[C@H](c2ccccc2)c2ncc[nH]2)c2ccccc21 | 1 | -0.1
COCCNCCOc1ccccc1Cl | 5 | -0.61
Cc1nc2ccccc2n1CC1CCCN1C(=O)C1CCc2cccnc21 (stereo not given) | 32 | -4.57
CCc1ncc(S(=O)(=O)N2CCCC2(C)C)s1 | -7 | 1.15
CC(C)(C)NCCCCOc1ccccc1Cl | -6 | 1.16
N#Cc1cnn(-c2nncc3ccccc23)c1N | 28 | -3.2
COc1cc(NC(=O)c2scnc2C)ccc1N1CCOC1=O | -12 | 2
C[C@@H](CC(=O)NCCc1ccco1)n1cccn1 | 0 | 0.06
CC[C@H]1CC[C@@H](C)N(C(=O)c2ccc(C(N)=O)cn2)C1 | -12 | 1.47
CCn1ccc(C(=O)N[C@H]2CN(Cc3ccncc3)C[C@@H]2C(=O)NC)n1 | 1 | -0.15
CN1CC2(CCN(C(=O)c3ccc[nH]3)CC2)C[C@@H](c2ccccc2)C1=O | -9 | 1.35
